What was measured:
[1] = target: T1, IL-2v-Fc (Fc2) with PTCWT CH3 domain sequence, of the Fab-Fc × cytokine-Fc hetero-bispecific antibody (Homo sapiens (Human), UniProt P0DOX5 partial chain = IgG part); assay: non-reducing SDS-PAGE, Fab-Fc × cytokine-Fc hetero-bispecific antibody
T1 construct: also called cytokine-Fc Fc2, PTCWT

[2] = target: T2, Fc2 of PTCWT (wild-type IgG1 Fc chain) (Homo sapiens (Human), UniProt P0DOX5 partial chain = IgG part); assay: SE-HPLC of Protein A-purified co-expression
T2 construct: Fc chain only (hinge-CH2-CH3); also called Fc chain of Fc2 of PTCWT; Fc2 of PTC031

[3] = target: T3, scFv-scFv-Fc (Fc2) with PTCWT CH3 domain sequence, of the Fab-Fc × scFv-scFv-Fc hetero-bispecific antibody (Homo sapiens (Human), UniProt P0DOX5 partial chain = IgG part); assay: non-reducing SDS-PAGE, Fab-Fc × scFv-scFv-Fc hetero-bispecific antibody
T3 construct: also called double scFv-Fc Fc2, PTCWT

[4] = target: T2, Fc2 of PTCWT (wild-type IgG1 Fc chain); assay: CE-SDS of Protein A-purified co-expression
[5] = target: T4, IL-2v-Fc (Fc2) with PTC074 CH3 domain sequence, of the Fab-Fc × cytokine-Fc hetero-bispecific antibody (Homo sapiens (Human), UniProt P0DOX5 partial chain = IgG part); assay: non-reducing SDS-PAGE, Fab-Fc × cytokine-Fc hetero-bispecific antibody
T4 construct: also called cytokine-Fc Fc2, PTC074

[6] = target: T5, IL-2v-Fc (Fc2) with PTC019 CH3 domain sequence, of the Fab-Fc × cytokine-Fc hetero-bispecific antibody (Homo sapiens (Human), UniProt P0DOX5 partial chain = IgG part); assay: as above
T5 construct: also called cytokine-Fc Fc2, PTC019

[7] = target: T6, IL-2v-Fc (Fc2) with PTC111 CH3 domain sequence, of the Fab-Fc × cytokine-Fc hetero-bispecific antibody (Homo sapiens (Human), UniProt P0DOX5 partial chain = IgG part); assay: as above
T6 construct: also called cytokine-Fc Fc2, PTC111

[8] = target: T7, Fc2 of PTC019 (IgG1 Fc chain with T366S, L368A, Y407V) (Homo sapiens (Human), UniProt P0DOX5 partial chain = IgG part); assay: SE-HPLC of Protein A-purified co-expression
T7 construct: Fc chain only; also called Fc2 of PTC032; Fc2 of PTC033

[9] = target: T8, Fc2 of PTC111 (IgG1 Fc chain with L351F, T366S, L368A, Y407V) (Homo sapiens (Human), UniProt P0DOX5 partial chain = IgG part); assay: SE-HPLC of Protein A-purified co-expression
T8 construct: Fc chain only; also called Fc2 of PTC113; Fc2 of PTC115

[10] = target: T9, scFv-scFv-Fc (Fc2) with PTC074 CH3 domain sequence, of the Fab-Fc × scFv-scFv-Fc hetero-bispecific antibody (Homo sapiens (Human), UniProt P0DOX5 partial chain = IgG part); assay: non-reducing SDS-PAGE, Fab-Fc × scFv-scFv-Fc hetero-bispecific antibody
T9 construct: also called double scFv-Fc Fc2, PTC074

[11] = target: T10, scFv-scFv-Fc (Fc2) with PTC019 CH3 domain sequence, of the Fab-Fc × scFv-scFv-Fc hetero-bispecific antibody (Homo sapiens (Human), UniProt P0DOX5 partial chain = IgG part); assay: as above
T10 construct: also called double scFv-Fc Fc2, PTC019

[12] = target: T7, Fc2 of PTC019 (IgG1 Fc chain with …); assay: CE-SDS of Protein A-purified co-expression
[13] = target: T8, Fc2 of PTC111 (IgG1 Fc chain with …); assay: CE-SDS of Protein A-purified co-expression
[14] = target: the molecule itself; assay: non-reducing SDS-PAGE (FIG. 4), PTC088, PTC089 and PTC090 co-expressions

B1: Fc1 of PTCWT (avelumab heavy chain with wild-type IgG1 CH3, plus avelumab light chain) (other)
heavy: EVQLLESGGGLVQPGGSLRLSCAASGFTFSSYIMMWVRQAPGKGLEWVSSIYPSGGITFYADTVKGRFTISRDNSKNTLYLQMNSLRAEDTAVYYCARIKLGTVTTVDYWGQGTLVTVSS[not shown - human IgG1 constant region]
light: QSALTQPASVSGSPGQSITISCTGTSSDVGGYNYVSWYQQHPGKAPKLMIYDVSNRPSGVSNRFSGSKSGNTASLTISGLQAEDEADYYCSSYTSSSTRVFGTGTKVTVLGQPKANPTVTLFPPSSEELQANKATLVCLISDFYPGAVTVAWKADGSPVKAGVETTKPSKQSNNKYAASSYLSLTPEQWKSHRSYSCQVTHEGSTVEKTVAPTECS
notes: Half antibody: one heavy and one light chain; also called PTCWT Fc1; negative control group Fc1
B1 was tested, and the “Fc1-2 hetero-dimer (%)” value [1] was 40.6%, the “Fc1-2 hetero-dimer (%)” value [2] was 42.2% and the “Fc1-2 hetero-dimer (%)” value [3] was 42%. For the same binder, the “Fc1-2 hetero-dimer (%)” value [4] was 40.1%.

B2: Fc1 of PTC019 (avelumab heavy chain with T366W in CH3, plus avelumab light chain) (other)
heavy: EVQLLESGGGLVQPGGSLRLSCAASGFTFSSYIMMWVRQAPGKGLEWVSSIYPSGGITFYADTVKGRFTISRDNSKNTLYLQMNSLRAEDTAVYYCARIKLGTVTTVDYWGQGTLVTVSS[not shown - human IgG1 constant region with changes]
light: QSALTQPASVSGSPGQSITISCTGTSSDVGGYNYVSWYQQHPGKAPKLMIYDVSNRPSGVSNRFSGSKSGNTASLTISGLQAEDEADYYCSSYTSSSTRVFGTGTKVTVLGQPKANPTVTLFPPSSEELQANKATLVCLISDFYPGAVTVAWKADGSPVKAGVETTKPSKQSNNKYAASSYLSLTPEQWKSHRSYSCQVTHEGSTVEKTVAPTECS
notes: Half antibody: one heavy and one light chain; also called Fc1 of PTC074; Fc1 of PTC091
For B2, the “Fc1-2 hetero-dimer (%)” value [5] was 90.4%, the “Fc1-2 hetero-dimer (%)” value [6] was 68.8% and the “Fc1-2 hetero-dimer (%)” value [7] was 89.9%. The “Fc1-2 hetero-dimer (%)” value [8] was 58.2%, the “Fc1-2 hetero-dimer (%)” value [9] was 91.6% and the “Fc1-2 hetero-dimer (%)” value [10] was 70.2%. For the same binder, the “Fc1-2 hetero-dimer (%)” value [11] was 57.6%, the “Fc1-2 hetero-dimer (%)” value [12] was 60.1% and the “Fc1-2 hetero-dimer (%)” value [13] was 84.8%.

B3: Fc1 of PTC088 (avelumab heavy chain with L351G, T366S, L368A, Y407V, plus avelumab light chain) (other)
heavy: EVQLLESGGGLVQPGGSLRLSCAASGFTFSSYIMMWVRQAPGKGLEWVSSIYPSGGITFYADTVKGRFTISRDNSKNTLYLQMNSLRAEDTAVYYCARIKLGTVTTVDYWGQGTLVTVSSASTKGPSVFPLAPSSKSTSGGTAALGCLVKDYFPEPVTVSWNSGALTSGVHTFPAVLQSSGLYSLSSVVTVPSSSLGTQTYICNVNHKPSNTKVDKKV[not shown - human IgG1 Fc with L351G T366S L368A Y407V (EU numbers)]
light: QSALTQPASVSGSPGQSITISCTGTSSDVGGYNYVSWYQQHPGKAPKLMIYDVSNRPSGVSNRFSGSKSGNTASLTISGLQAEDEADYYCSSYTSSSTRVFGTGTKVTVLGQPKANPTVTLFPPSSEELQANKATLVCLISDFYPGAVTVAWKADGSPVKAGVETTKPSKQSNNKYAASSYLSLTPEQWKSHRSYSCQVTHEGSTVEKTVAPTECS
notes: Half antibody; Substitutions in EU numbering; also called Fc1 of PTC089; Fc1 of PTC090
B3: no binding [14].
